Screen size: about 270,000 compounds; about 5,800 (2.1%) were called active. This list was built around the results that the source calls inconclusive (neither active nor inactive); the mix of calls is not that of the screen. The call rests on the fitted dose curve; in most records, active means well fitted inhibition curve with a large enough effect; inconclusive means small, poorly fitted or top-dose-only effect; inactive means flat fitted curve, though single readings scatter. Potencies of inconclusive entries are doubtful fits and often do not repeat.
These compounds were tested against Microtubule-associated protein tau (Homo sapiens) (UniProt P10636) (assay: qHTS for Inhibitors of Tau Fibril Formation, Thioflavin T Binding). Settings: recombinant tau K18 P301L (four-repeat tau fragment), heparin-induced fibrillization, ThT fluorescence; series mostly up to 57.4 µM.
Chain of UniProt P10636 (P10636 whole entry, looked up, the tested form may be a part): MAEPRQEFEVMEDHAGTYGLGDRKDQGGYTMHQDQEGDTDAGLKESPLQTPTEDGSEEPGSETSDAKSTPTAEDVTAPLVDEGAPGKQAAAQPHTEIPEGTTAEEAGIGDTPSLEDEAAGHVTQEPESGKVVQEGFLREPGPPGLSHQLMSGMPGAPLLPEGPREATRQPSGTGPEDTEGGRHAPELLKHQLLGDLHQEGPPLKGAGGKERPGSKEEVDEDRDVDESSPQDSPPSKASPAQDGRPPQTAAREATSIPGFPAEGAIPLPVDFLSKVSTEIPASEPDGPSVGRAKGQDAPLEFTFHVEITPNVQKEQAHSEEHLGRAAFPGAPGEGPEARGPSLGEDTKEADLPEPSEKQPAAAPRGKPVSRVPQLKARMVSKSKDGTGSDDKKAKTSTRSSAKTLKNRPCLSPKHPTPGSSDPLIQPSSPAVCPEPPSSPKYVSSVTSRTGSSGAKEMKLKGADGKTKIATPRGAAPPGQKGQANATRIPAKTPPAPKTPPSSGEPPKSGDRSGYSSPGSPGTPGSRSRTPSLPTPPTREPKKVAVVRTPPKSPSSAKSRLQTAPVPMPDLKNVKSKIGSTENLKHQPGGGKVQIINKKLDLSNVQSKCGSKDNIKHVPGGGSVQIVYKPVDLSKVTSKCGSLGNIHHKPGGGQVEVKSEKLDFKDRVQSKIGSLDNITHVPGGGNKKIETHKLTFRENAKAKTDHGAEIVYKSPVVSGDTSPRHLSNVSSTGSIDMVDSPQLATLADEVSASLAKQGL
Summary of the method: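 Recombinant human tau K18 fragment […] carrying P301L, 15 uM unlabeled plus 0.24 uM Alexa 594-labeled, was fibrillized with 20 uM heparin in 100 mM sodium acetate pH 7 for 6 hr at 37 C; 30 uM ThT fluorescence read after 1 hr.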
CCOc1ccc(NC(=O)CSc2ccccc2N)cc1 was tested, and the Potency was inconclusive: 5.01 µM [inhibitor, single point]. O=C(CSc1nnc(-c2ccc(Cl)cc2)n1-c1ccc(Cl)cc1)N/N=C/c1ccco1 was tested, and the Potency was inconclusive: 39.8 µM [inhibitor, single point]. CC(=O)Nc1ccc(-c2csc(Nc3ccc(S(N)(=O)=O)cc3)n2)cc1 was tested, and the Potency was inconclusive: 7.08 µM [inhibitor, partial curve]. For COc1ccc(Cl)cc1-n1c(C)cc(C=O)c1C, the Potency was “inactive”. CC/C(C)=N/Nc1nc2sc3c(c2c(=O)[nH]1)CC(C)(C)OC3 was tested, and the Potency was inconclusive: 15.8 µM [inhibitor, partial curve]. With CCOC(=O)c1cc2n(c1N)-c1ccccc1C2=O the Potency was active: 14.1 µM. For COC(=O)C1=C(C)OC(N)=C(C#N)C1c1cccnc1 (stereo not drawn), the Potency was inconclusive: 22.4 µM [inhibitor, partial curve]. In the case of N#Cc1c(NC(=O)c2cc(C3CC3)on2)sc2c1CCC2, the Potency is reported as inconclusive: 12.6 µM [inhibitor, partial curve]. With Cc1cc(NC(=O)c2ccccc2F)ccc1-c1nc2ccccc2s1 the Potency was inconclusive: 1 µM [inhibitor, full curve]. Cc1ccc(-n2cnc3cc(C(=O)NCCC4=CCCCC4)ccc32)c(C)c1 was tested, and the Potency was inconclusive: 3.16 µM [inhibitor, full curve]. For CC(=O)Nc1ccc(N2C(=O)c3ccc(C(=O)Nc4nnc(SCc5ccc(F)cc5)s4)cc3C2=O)cc1, the Potency was inconclusive: 1.41 µM [inhibitor, full curve, poor fit]. O=C(/C=C/c1ccco1)NCc1ccc(F)cc1 was tested, and the Potency was “inactive”. NC(=S)n1[nH]c(-c2ccc([N+](=O)[O-])cc2)c(N=Nc2ccccc2[N+](=O)[O-])c1=O was tested, and the Potency was inconclusive: 2 µM [inhibitor, full curve]. Cc1cc(S(=O)(=O)N2CCN(Cc3ccccc3)CC2)c(C)s1 was tested, and the Potency was inconclusive: 39.8 µM [inhibitor, single point]. Cc1ccc(NC(=O)CNc2ccccc2CN(C)C2CCCCC2)cc1 was tested, and the Potency was “inactive”. In the case of COc1ccc(CCn2c(C)nc3c(c(=O)c4ccccc4n3C)c2=O)cc1, the Potency is reported as inconclusive: 2.51 µM [inhibitor, full curve]. With Cn1c(=O)c2c(nc(CN3CCc4ccccc4C3)n2Cc2cccc(Cl)c2)n(C)c1=O the Potency was inconclusive: 31.6 µM [inhibitor, single point]. In the case of COc1ccc(OCCNc2c([N+](=O)[O-])c(=O)oc3ccccc23)cc1, the Potency is reported as “inactive”. For CCN(CC)Cc1c(O)ccc2c(=O)c(-c3ccc4c(c3)OCCO4)coc12, the Potency was inconclusive: 31.6 µM [inhibitor, single point]. With O=C(Nc1cccc2nsnc12)c1ccc2c(c1)OCCO2 the Potency was inconclusive: 7.08 µM [inhibitor, partial curve]. For CC(=O)c1ccc2c(c1)C1C=CCC1C(c1ccc(S(=O)(=O)N3CCOCC3)cc1)N2 (stereo not drawn), the Potency was inconclusive: 28.2 µM [inhibitor, partial curve]. For O=C(CNc1cccc2ccccc12)N/N=C/C(Br)=C/c1ccccc1, the Potency was inconclusive: 5.62 µM [inhibitor, partial curve]. For COc1ccc(C(=O)Nc2ccc3nc(SCC(=O)N4CCCC4)sc3c2)cc1, the Potency was inconclusive: 0.891 µM [inhibitor, full curve]. For O=C(CCn1c(=O)c2cccn2c2cccnc21)N1CCN(c2ccc(F)cc2)CC1, the Potency was inconclusive: 12.6 µM [inhibitor, partial curve]. With S=c1sc2c(Cl)ncnc2n1-c1ccccc1 the Potency was inconclusive: 22.4 µM [inhibitor, single point]. For COc1cc([C@@H]2Oc3cc([C@H]4Oc5cc(O)cc(O)c5C(=O)[C@H]4O)ccc3O[C@H]2CO)ccc1O, the Potency was inconclusive: 17.8 µM [inhibitor, partial curve]. For Cc1cc(Nc2c(C)n(C)n(-c3ccccc3)c2=O)n2c(nc3cc(F)c(F)cc32)c1C#N, the Potency was inconclusive: 0.282 µM [inhibitor, full curve, poor fit]. In the case of CCOC(=O)C1=NN(C(=O)c2ccco2)C2(CC2)C1, the Potency is reported as “inactive”. For COC(=O)c1ccc(C)c(NC(=O)c2ccc(Cn3cc([N+](=O)[O-])cn3)o2)c1, the Potency was “inactive”. Cc1ccc(C(=O)Nc2nc(=O)n(C(=O)CC(C)C)s2)cc1 was tested, and the Potency was inconclusive: 8.91 µM [inhibitor, partial curve]. For CCn1cc2nc(SCC(=O)Nc3cc(OC)ccc3OC)n(Cc3ccc(Cl)cc3)c(=O)c2n1, the Potency was “inactive”. In the case of Cc1ccc(-n2c(SCC(=O)N3CCc4ccccc43)nc3c([nH]c4ccccc43)c2=O)cc1, the Potency is reported as “inactive”. With O=C(c1cc(F)c(F)cc1Cl)N1CCN(c2ccc([N+](=O)[O-])c3ncccc23)CC1 the Potency was inconclusive: 39.8 µM [inhibitor, single point]. For COc1cc(/C=N/Nc2ccc(Cl)c(C(=O)O)c2)ccc1OC(=O)c1ccco1, the Potency was inconclusive: 14.1 µM [inhibitor, partial curve]. With CCCCNC(=O)CCCCCNS(=O)(=O)c1ccc(Br)cc1 the Potency was “inactive”. With O=C(O)CCc1n[nH]c(=S)[nH]c1=O the Potency was “inactive”. In the case of Cc1ccc(CN2CCN(/N=C/c3ccc(Cl)c([N+](=O)[O-])c3)CC2)cc1, the Potency is reported as inconclusive: 14.1 µM [inhibitor, partial curve]. In the case of CNc1cc(N2CCCCCC2)ccc1[N+](=O)[O-], the Potency is reported as inconclusive: 14.1 µM [inhibitor, partial curve]. For CCN(CC)CCCN1C(=O)C(=O)/C(=C(/O)c2ccc3c(c2)OCCO3)C1c1ccc(C)o1 (stereo not drawn), the Potency was “inactive”. For O=C(NCc1ccccn1)C1CCCN(Cc2cnn(-c3ccccc3)c2-n2cccc2)C1 (stereo not drawn), the Potency was “inactive”. CCOCCCNC(=O)C(NC(=O)C1CCC(C)CC1)C(C)C (stereo not drawn) was tested, and the Potency was “inactive”. For CCCCCCNC(=O)CCc1c(C)nc2nc(-c3cc(OC)cc(OC)c3)nn2c1C, the Potency was inconclusive: 35.5 µM [inhibitor, single point]. With Cc1ccc(C(=O)c2cn(Cc3cc(C)ccc3C)c3nc(C)ccc3c2=O)cc1 the Potency was inconclusive: 39.8 µM [inhibitor, single point]. Cc1cccc2nc(CSc3nc4ccccc4o3)cn12 was tested, and the Potency was inconclusive: 10 µM [inhibitor, partial curve]. With COc1ccc(C(=O)/C(=C\c2ccco2)N2C=CC=CC2=C(C#N)C#N)cc1 the Potency was active: 12.6 µM. In the case of Cc1c(Cl)cccc1NC(=O)Nc1nnc(N(C)C2CCCCC2)s1, the Potency is reported as “inactive”. In the case of Cc1c(C(C)(C)C)c(C=S)n2ccccc12, the Potency is reported as inconclusive: 28.2 µM [inhibitor, partial curve]. In the case of O=C1C2Cc3c([nH]c4ccccc34)C(c3ccccc3)N2C(=O)C2Cc3c([nH]c4ccccc34)C(c3ccccc3)N12 (stereo not drawn), the activity, negative = inhibition is reported as inactive: -3.56% [at 11.5 µM]. For CC1(C)OCC(CSC2=C(SCC3COC(C)(C)O3)C(=O)c3ncccc3C2=O)O1 (stereo not drawn), the Potency was active: 1 µM. With CC1CCCN(C(=O)c2ccc(COc3ccccc3Br)cc2)C1 (stereo not drawn) the Potency was inconclusive: 20 µM [inhibitor, single point]. For COc1ccc(-c2cn3c(n2)sc2cc(C(=O)NCC(C)c4ccccc4)ccc23)cc1 (stereo not drawn), the Potency was “inactive”. For COc1ccc(NC(=S)NC(=O)/C=C/c2ccco2)cc1, the Potency was inconclusive: 8.91 µM [inhibitor, partial curve, poor fit]. With CCOc1ccc(Br)cc1S(=O)(=O)NC(=O)c1ccccc1 the Potency was “inactive”. COc1ccc(OC)c(NC(=O)C2CCCN(S(=O)(=O)c3ccc4[nH]c(=O)ccc4c3)C2)c1 (stereo not drawn) was tested, and the Potency was “inactive”. For COc1ccccc1NC(=O)Nc1ccc2[nH]c(=O)[nH]c2c1, the Potency was inconclusive: 7.94 µM [inhibitor, partial curve]. CCN(CC)c1ccc(/C=N/NC(=S)NC)c(O)c1 was tested, and the Potency was inconclusive: 14.1 µM [inhibitor, partial curve]. With CN1CC(=O)N(CC(=O)Nc2cccc(C#N)c2)c2ccccc2C1=O the Potency was “inactive”. In the case of O=C(CNC(c1ccccc1)c1ccccc1)Nc1ccccc1-c1ccccc1, the Potency is reported as “inactive”. For O=C(CSc1nc2ccc(Cl)cc2[nH]1)c1c[nH]c2ccccc12, the Potency was inconclusive: 39.8 µM [activator, single point]. For Clc1ccc(OCCSc2nnnn2C2CCCCC2)cc1, the Potency was “inactive”. For COc1ccc(OC)c(NC(=O)CSc2c3c(nc4cc(Cl)ccc24)CCCC3)c1, the Potency was inconclusive: 6.31 µM [inhibitor, partial curve]. O=C(COc1ccccc1-c1ccccc1)N/N=C/c1ccncc1 was tested, and the Potency was “inactive”. In the case of O=C1CCCC(O)=C1C=Nc1ccc2c(c1)oc1ccccc12, the Potency is reported as inconclusive: 10 µM [inhibitor, partial curve]. For COC(=O)C1=C(C(=O)OC)[C@@H]2N(C)c3ccc(OC)cc3[C@@]23C[C@@H](C(=O)OC)N(S(=O)(=O)c2c(C)noc2C)C3=N1, the activity, negative = inhibition was inactive: -7.54% [at 11.5 µM]. In the case of C/C=C/COC(=O)c1[nH]c2c(c1C)C(=O)CC(c1ccco1)C2 (stereo not drawn), the Potency is reported as inconclusive: 22.4 µM [inhibitor, partial curve]. For CCCCCCN(C(=O)CCCCCN1C(=O)NC(c2ccc(Cl)cc2)C(C(=O)OCc2ccccc2)=C1C)C(C(=O)NCCCC)c1ccc(OCC(=O)OC)c(C(=O)OC)c1 (stereo not drawn), the Potency was “inactive”. In the case of CCc1ccc(Cn2nnc3c(=O)[nH]c(C4CCCN(C(=O)c5cccc(Cl)c5)C4)nc32)cc1 (stereo not drawn), the Potency is reported as inconclusive: 4.47 µM [inhibitor, single point]. With COc1ccc(CC(C)N2CCN(c3cccc(C(F)(F)F)c3)CC2)cc1OC (stereo not drawn) the Potency was inconclusive: 28.2 µM [inhibitor, partial curve, poor fit].

— PubChem BioAssay AID1460 (National Center for Advancing Translational Sciences (NCATS), 2008)
Further: nearly all actives have a fitted effect of over 55% in size.
On the % scale 0 is the no-effect control and ±100 the full control effect; potency means the concentration at half of the fitted maximal effect; tags describe the fitted curve by direction and shape.
